# Measured values: the supplement of paper PMC8728848
# This is one part of the list.
# Experiments:
# Assay in all cases: glycan array binding signal (z-score within array); higher = stronger binding
# Conditions in all cases: glycan notation: IUPAC condensed, linker removed
# [1] = biological target: GalNAc(b1-3)Gal(a1-4)Gal(b1-4)GlcNAc
# How it was run: (§1)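 Arrays were curated from the Consortium for Functional Glycomics database, 3228 in total, and kept only where the protein sequence was available. Binding is expressed as a within-array Z-score. This score was averaged across arrays of the same protein sequence at different concentrations or buffers and across linkers, and negative values can be read as non-binding.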
# [2] = biological target: GalNAc(b1-3)Gal(a1-4)Gal(b1-4)GlcNAc(b1-3)Gal(b1-4)Glc
# How it was run: as §1
# [3] = biological target: GalNAc(b1-3)Gal(a1-6)Gal(b1-4)Glc
# How it was run: as §1
# GalNAc(b1-3)GalNAc = biological target: GalNAc(b1-3)GalNAc
# How it was run: as §1
# GalNAc(b1-4)GlcNAc = biological target: GalNAc(b1-4)GlcNAc
# How it was run: as §1
# [4] = biological target: GalNAc(b1-4)GlcNAc(b1-2)Man(a1-3)[GalNAc(b1-4)GlcNAc(b1-2)Man(a1-6)]Man(b1-4)GlcNAc(b1-4)GlcNAc
# How it was run: as §1
# Glc(a1-4)Glc = biological target: Glc(a1-4)Glc
# How it was run: as §1
# Glc(a1-6)Glc(a1-6)Glc = biological target: Glc(a1-6)Glc(a1-6)Glc
# How it was run: as §1
# Glc(b1-4)Glc = biological target: Glc(b1-4)Glc
# How it was run: as §1
# Glc(b1-6)Glc = biological target: Glc(b1-6)Glc
# How it was run: as §1
# GlcA(b1-3)Gal = biological target: GlcA(b1-3)Gal
# How it was run: as §1
# GlcA(b1-3)GlcNAc = biological target: GlcA(b1-3)GlcNAc
# How it was run: as §1
# GlcA(b1-6)Gal = biological target: GlcA(b1-6)Gal
# How it was run: as §1
# [5] = biological target: GlcNAc(a1-3)Gal(b1-4)GlcNAc
# How it was run: as §1
# [6] = biological target: GlcNAc(a1-4)Gal(b1-3)GlcNAc
# How it was run: as §1
# [7] = biological target: GlcNAc(a1-4)Gal(b1-4)GalNAc
# How it was run: as §1
# [8] = biological target: GlcNAc(a1-4)Gal(b1-4)GlcNAc
# How it was run: as §1
# [9] = biological target: GlcNAc(a1-4)Gal(b1-4)GlcNAc(b1-3)Gal(b1-4)Glc
# How it was run: as §1
# [10] = biological target: GlcNAc(a1-4)Gal(b1-4)GlcNAc(b1-3)Gal(b1-4)GlcNAc
# How it was run: as §1
# [11] = biological target: GlcNAc(a1-4)Gal(b1-4)GlcNAc(b1-3)Gal(b1-4)GlcNAc(b1-3)Gal(b1-4)GlcNAc
# How it was run: as §1
# [12] = biological target: GlcNAc(a1-4)Gal(b1-4)GlcNAc(b1-3)Gal(b1-4)[Fuc(a1-3)]GlcNAc(b1-3)Gal(b1-4)[Fuc(a1-3)]GlcNAc
# How it was run: as §1
# [13] = biological target: GlcNAc(a1-6)Gal(b1-4)GlcNAc
# How it was run: as §1
# [14] = biological target: GlcNAc(b1-2)Gal(b1-3)GalNAc
# How it was run: as §1
# [15] = biological target: GlcNAc(b1-2)Man(a1-3)[GlcNAc(b1-2)Man(a1-6)]Man(b1-4)GlcNAc(b1-4)GlcNAc
# How it was run: as §1
# [16] = biological target: GlcNAc(b1-2)Man(a1-3)[GlcNAc(b1-2)Man(a1-6)]Man(b1-4)GlcNAc(b1-4)[Fuc(a1-6)]GlcNAc
# How it was run: as §1
# [17] = biological target: GlcNAc(b1-2)[GlcNAc(b1-4)]Man(a1-3)[GlcNAc(b1-2)Man(a1-6)]Man(b1-4)GlcNAc(b1-4)GlcNAc
# How it was run: as §1
# GlcNAc(b1-3)Gal = biological target: GlcNAc(b1-3)Gal
# How it was run: as §1
# [18] = biological target: GlcNAc(b1-3)Gal(b1-3)GalNAc
# How it was run: as §1
# GlcNAc(b1-3)Gal(b1-4)Glc = biological target: GlcNAc(b1-3)Gal(b1-4)Glc
# How it was run: as §1
# [19] = biological target: GlcNAc(b1-3)Gal(b1-4)GlcNAc
# How it was run: as §1
# [20] = biological target: GlcNAc(b1-3)Gal(b1-4)GlcNAc(b1-3)Gal(b1-4)GlcNAc
# How it was run: as §1
# GlcNAc(b1-3)GalNAc = biological target: GlcNAc(b1-3)GalNAc
# How it was run: as §1
# GlcNAc(b1-3)Man = biological target: GlcNAc(b1-3)Man
# How it was run: as §1
# [21] = biological target: GlcNAc(b1-3)[GlcNAc(b1-4)][GlcNAc(b1-6)]GlcNAc
# How it was run: as §1
# [22] = biological target: GlcNAc(b1-3)[GlcNAc(b1-6)]Gal(b1-4)GlcNAc
# How it was run: as §1
# [23] = biological target: GlcNAc(b1-3)[GlcNAc(b1-6)]GalNAc
# How it was run: as §1
# [24] = biological target: GlcNAc(b1-4)Gal(b1-4)GlcNAc
# How it was run: as §1
# GlcNAc(b1-4)GlcNAc = biological target: GlcNAc(b1-4)GlcNAc
# How it was run: as §1
# [25] = biological target: GlcNAc(b1-4)GlcNAc(b1-4)GlcNAc
# How it was run: as §1
# [26] = biological target: GlcNAc(b1-4)GlcNAc(b1-4)GlcNAc(b1-4)GlcNAc(b1-4)GlcNAc
# How it was run: as §1
# [27] = biological target: GlcNAc(b1-4)GlcNAc(b1-4)GlcNAc(b1-4)GlcNAc(b1-4)GlcNAc(b1-4)GlcNAc
# How it was run: as §1
# [28] = biological target: GlcNAc(b1-4)[GlcNAc(b1-6)]GalNAc
# How it was run: as §1
# [29] = biological target: GlcNAc(b1-6)Gal(b1-4)GlcNAc
# How it was run: as §1
# GlcNAc(b1-6)GalNAc = biological target: GlcNAc(b1-6)GalNAc
# How it was run: as §1
# GlcNAc3Prop(b1-4)GlcNAc = biological target: GlcNAc3Prop(b1-4)GlcNAc
# How it was run: as §1
binder,measurement,setting,value
Gal 1 (Canis lupus) (protein) MACGLVASNLSLKPGQCLRVQCEVVPEAKSFVLNLGKDGDNLCLHFNPRFEAHGDVNTIVCNSKDGGAWGEELRESAFPFQPGTVTEVCISFDQADLTIKLPDGYTFKFPNRLNLEAISYLAADGDMKIKCLAFD,glycan array binding signal (z-score),[1],-0.321
same,glycan array binding signal (z-score),[2],-0.311
same,glycan array binding signal (z-score),[3],-0.321
same,glycan array binding signal (z-score),GalNAc(b1-3)GalNAc,-0.341
same,glycan array binding signal (z-score),GalNAc(b1-4)GlcNAc,-0.281
same,glycan array binding signal (z-score),[4],-0.313
same,glycan array binding signal (z-score),Glc(a1-4)Glc,-0.317
same,glycan array binding signal (z-score),Glc(a1-6)Glc(a1-6)Glc,-0.327
same,glycan array binding signal (z-score),Glc(b1-4)Glc,-0.335
same,glycan array binding signal (z-score),Glc(b1-6)Glc,-0.343
same,glycan array binding signal (z-score),GlcA(b1-3)Gal,-0.333
same,glycan array binding signal (z-score),GlcA(b1-3)GlcNAc,-0.294
same,glycan array binding signal (z-score),GlcA(b1-6)Gal,-0.333
same,glycan array binding signal (z-score),[5],-0.327
same,glycan array binding signal (z-score),[6],-0.332
same,glycan array binding signal (z-score),[7],-0.305
same,glycan array binding signal (z-score),[8],-0.312
same,glycan array binding signal (z-score),[9],-0.318
same,glycan array binding signal (z-score),[10],-0.274
same,glycan array binding signal (z-score),[11],-0.234
same,glycan array binding signal (z-score),[12],-0.257
same,glycan array binding signal (z-score),[13],-0.308
same,glycan array binding signal (z-score),[14],-0.335
same,glycan array binding signal (z-score),[15],-0.34
same,glycan array binding signal (z-score),[16],-0.315
same,glycan array binding signal (z-score),[17],-0.317
same,glycan array binding signal (z-score),GlcNAc(b1-3)Gal,-0.299
same,glycan array binding signal (z-score),[18],-0.317
same,glycan array binding signal (z-score),GlcNAc(b1-3)Gal(b1-4)Glc,-0.293
same,glycan array binding signal (z-score),[19],-0.3
same,glycan array binding signal (z-score),[20],-0.152
same,glycan array binding signal (z-score),GlcNAc(b1-3)GalNAc,-0.318
same,glycan array binding signal (z-score),GlcNAc(b1-3)Man,-0.306
same,glycan array binding signal (z-score),[21],-0.315
same,glycan array binding signal (z-score),[22],-0.334
same,glycan array binding signal (z-score),[23],-0.326
same,glycan array binding signal (z-score),[24],-0.325
same,glycan array binding signal (z-score),GlcNAc(b1-4)GlcNAc,-0.321
same,glycan array binding signal (z-score),[25],-0.24
same,glycan array binding signal (z-score),[26],-0.334
same,glycan array binding signal (z-score),[27],-0.326
same,glycan array binding signal (z-score),[28],-0.328
same,glycan array binding signal (z-score),[29],-0.307
same,glycan array binding signal (z-score),GlcNAc(b1-6)GalNAc,-0.33
same,glycan array binding signal (z-score),GlcNAc3Prop(b1-4)GlcNAc,-0.334
